Assay in all cases: uncleaved DNA left, log2 of reads against the no-enzyme library (log2 ratio); higher = less cleavage (more negative = more Rep cleavage of the k-mer); sequences stand for … in CTCGTCCG…ACCGGAGA
The test system of assay [1] is T1, Rep nickase domain of Muscovy duck circovirus.
T1 sequence (residues 1-111 of Rep, tag left off): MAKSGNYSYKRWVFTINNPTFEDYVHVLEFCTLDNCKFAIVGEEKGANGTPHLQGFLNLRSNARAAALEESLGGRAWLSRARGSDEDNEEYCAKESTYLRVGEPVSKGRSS
The method, then: (§1)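 A pool of 90-nt single-stranded DNAs with seven random bases just before the constant AC of the nick site (name = the seven bases) was cut by 3 µM recombinant His6-SUMO-tagged Rep nickase domain (300 nM DNA, 50 mM HEPES pH 8.0, 50 mM NaCl, 1 mM MnCl2, 1 h, 37 °C, three replicates). Uncut DNA was amplified and sequenced.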

Assay [2] has as its system T2, Rep nickase domain of banana bunchy top virus.
T2 sequence (residues 1-94 of Rep, tag left off): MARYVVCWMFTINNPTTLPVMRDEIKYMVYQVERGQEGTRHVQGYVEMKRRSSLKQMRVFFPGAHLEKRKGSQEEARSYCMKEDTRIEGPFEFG
The method, then:
as §1

Assay [3] has as its system T3, Rep nickase domain of cabbage leaf curl virus.
T3 sequence (residues 1-116 of Rep, tag left off): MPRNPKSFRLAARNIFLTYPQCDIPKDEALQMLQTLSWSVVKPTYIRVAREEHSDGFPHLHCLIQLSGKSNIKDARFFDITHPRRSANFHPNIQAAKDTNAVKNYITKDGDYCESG
As to the method:
as §1

The subject of assay [4] is T4, Rep nickase domain of chickpea chlorotic dwarf virus.
T4 sequence (residues 1-124 of Rep, tag left off): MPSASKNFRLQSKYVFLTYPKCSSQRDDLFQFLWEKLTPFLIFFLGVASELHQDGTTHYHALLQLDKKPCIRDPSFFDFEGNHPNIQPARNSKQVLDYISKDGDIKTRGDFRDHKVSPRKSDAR
The method, then:
as §1

Assay [5] deals with T5, Rep nickase domain of faba bean necrotic yellows virus.
T5 sequence (residues 1-98 of Rep, tag left off): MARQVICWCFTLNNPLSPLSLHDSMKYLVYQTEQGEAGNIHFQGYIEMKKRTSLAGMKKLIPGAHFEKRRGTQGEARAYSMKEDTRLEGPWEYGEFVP
The method, then:
as §1

The test system of assay [6] is T6, Rep nickase domain of maize striate mosaic virus.
T6 sequence (residues 1-117 of Rep, tag left off): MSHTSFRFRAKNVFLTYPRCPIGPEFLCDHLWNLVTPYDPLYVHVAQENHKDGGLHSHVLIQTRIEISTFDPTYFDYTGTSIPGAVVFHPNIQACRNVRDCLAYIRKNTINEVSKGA
As to the method:
as §1

Assay [7] deals with T7, Rep nickase domain of porcine circovirus 2.
T7 sequence (residues 2-116 of Rep, tag left off): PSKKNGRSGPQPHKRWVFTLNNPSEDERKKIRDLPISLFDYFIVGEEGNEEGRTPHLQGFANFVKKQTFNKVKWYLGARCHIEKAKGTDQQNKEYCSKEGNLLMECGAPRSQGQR
As to the method:
as §1

The test system of assay [8] is T8, Rep nickase domain of tomato golden mosaic virus.
T8 sequence (residues 1-124 of Rep, tag left off): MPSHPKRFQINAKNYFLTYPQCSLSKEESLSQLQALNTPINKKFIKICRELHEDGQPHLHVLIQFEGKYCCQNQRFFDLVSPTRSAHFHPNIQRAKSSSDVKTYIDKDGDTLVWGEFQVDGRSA
As to the method:
as §1

Assay [9] concerns T9, Rep nickase domain of tomato yellow leaf curl virus.
T9 sequence (residues 1-136 of Rep, tag left off): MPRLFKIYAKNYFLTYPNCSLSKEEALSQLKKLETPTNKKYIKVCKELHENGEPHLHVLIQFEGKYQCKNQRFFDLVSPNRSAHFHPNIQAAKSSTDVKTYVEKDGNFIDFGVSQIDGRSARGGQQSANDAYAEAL
The method, then:
as §1

The subject of assay [10] is T10, Rep nickase domain of wheat dwarf virus.
T10 sequence (residues 1-137 of Rep, tag left off): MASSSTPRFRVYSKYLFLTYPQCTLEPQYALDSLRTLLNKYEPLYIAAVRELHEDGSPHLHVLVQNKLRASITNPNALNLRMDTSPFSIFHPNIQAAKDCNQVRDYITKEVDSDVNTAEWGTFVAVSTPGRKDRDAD
As to the method: as §1

The list shows a part of the results. Cleavage of a single-stranded DNA pool by Rep nickase domains was read by sequencing at 3 µM enzyme and 37 °C for 1 h; the strands have 90 letters, of which the middle is given. The score is log2 (uncut reads / reads without enzyme); more negative means more cut, near 0 not cut, and no call is made. Shares of all reads are compared, so uncut sequences can rise above 0 when many others are cut.

Results on 15 sequences are retold here after the supplement of paper PMC7826260.

AAATAAA: the “uncleaved DNA left (log2)” value in assay [1] is -0.0949; in assay [2], 0.108; in assay [3] it was -0.242; in assay [4], -0.697; in assay [5], 0.132; in assay [6], -0.829. Moreover, the “uncleaved DNA left (log2)” value in assay [7] was -0.186; in assay [8], 0.184; in assay [9], -0.0476; in assay [10], 0.00871.
On to TCAATCT, for which the “uncleaved DNA left (log2)” value in [1] was 0.0283; in [2], 0.129; in assay [3] it was -0.0477; in assay [4] it was -0.113; in assay [5], -0.0202; in assay [6], 1.28. The “uncleaved DNA left (log2)” value was -0.000755 in assay [7], -0.025 in assay [8], 0.132 in assay [9] and 0.129 in [10].
Turning to GTAACGA, the “uncleaved DNA left (log2)” value in assay [1] is 0.0778; in [2], 0.0369; in assay [3], -0.00412; in assay [4] it was 0.476; in [5], -0.0473; in assay [6] it was 0.603. The “uncleaved DNA left (log2)” value in assay [7] turned out to be 0.0901; in assay [8], 0.119; in assay [9], 0.0334; in assay [10], 0.0638.
Turning to GGAGTTG, the “uncleaved DNA left (log2)” value in assay [1] stood at 0.149; in [2], 0.221; in assay [3], 0.394; in assay [4] it was 0.846; in [5], 0.28; in assay [6] it was 0.998. Besides, the “uncleaved DNA left (log2)” value in [7] worked out at 0.313; in [8], 0.175; in [9] it was 0.132; in assay [10], 0.189.
As to AGCTTGT, the “uncleaved DNA left (log2)” value in assay [1] turned out to be 0.0564; in [2], 0.124; in assay [3], 0.124; in assay [4], 0.649; in [5], 0.134; in [6] it was 0.73. Moreover, the “uncleaved DNA left (log2)” value was -0.369 in assay [7], 0.0884 in assay [8], 0.0926 in assay [9] and -0.019 in [10].
As for GTCCAGG, the “uncleaved DNA left (log2)” value in [1] is 0.0194; in assay [2], -0.0435; in [3], 0.26; in assay [4], 0.994; in assay [5] it was -0.0465; in assay [6] it was 1.65. The “uncleaved DNA left (log2)” value in assay [7] is -0.00256; in assay [8] it was 0.104; in assay [9], -0.043; in [10], 0.0684.
Consider TAGTGTT, for which the “uncleaved DNA left (log2)” value was -3.38 in [1]; -3.68 in assay [2]; -3.76 in assay [3]; -3.1 in assay [4]; -3.7 in assay [5]; -2.27 in assay [6]. In addition, the “uncleaved DNA left (log2)” value in assay [7] is -4.2; in assay [8] it was -2.83; in assay [9] it was -0.157; in [10], -3.
As to GGTTGAA, the “uncleaved DNA left (log2)” value in assay [1] was 0.144; in [2] it was -0.0136; in assay [3], 0.43; in assay [4], 1.04; in [5], 0.0876; in [6], 1.65. The “uncleaved DNA left (log2)” value in assay [7] was 0.177; in assay [8], 0.0599; in [9], 0.131; in assay [10] it was 0.178.
For CATGAAA, the “uncleaved DNA left (log2)” value in assay [1] is 0.0532; in assay [2], 0.0775; in assay [3], -0.0657; in assay [4], -0.494; in assay [5] it was 0.0373; in assay [6] it was -0.851. In addition, the “uncleaved DNA left (log2)” value in [7] is 0.16; in assay [8], 0.0993; in assay [9], 0.00945; in assay [10] it was 0.0576.
As to TATGAGC, the “uncleaved DNA left (log2)” value in [1] was 0.186; in [2], 0.0655; in assay [3] it was -0.274; in assay [4] it was -0.452; in assay [5] it was 0.0424; in assay [6], -1.02. For the same sequence, the “uncleaved DNA left (log2)” value in assay [7] is 0.233; in assay [8], -0.0131; in assay [9] it was 0.0498; in [10], 0.00549.
In the case of GCTAGTT, the “uncleaved DNA left (log2)” value in [1] was -0.0189; in assay [2], 0.0821; in assay [3], 0.238; in assay [4], -0.25; in assay [5], 0.0527; in [6], 0.436. Besides, the “uncleaved DNA left (log2)” value in [7] was found to be 0.0994; in assay [8], 0.0709; in assay [9], 0.0433; in assay [10], 0.0422.
ATGCCTT: the “uncleaved DNA left (log2)” value in assay [1] is -0.0531; in [2] it was -0.11; in assay [3] it was -0.133; in [4], -1.77; in assay [5], -0.0667; in [6], -0.413. The “uncleaved DNA left (log2)” value in [7] was -0.41; in assay [8], -0.0477; in assay [9], -0.0944; in [10] it was -0.0385.
Turning to TACGATT, the “uncleaved DNA left (log2)” value in assay [1] was 0.0386; in assay [2], -0.068; in assay [3] it was -2.69; in assay [4] it was -2.77; in [5], 0.0258; in assay [6], -0.476. The “uncleaved DNA left (log2)” value is -1.65 in assay [7], -0.346 in [8], -0.0771 in assay [9] and -0.317 in [10].
Take GCAGATA: the “uncleaved DNA left (log2)” value is -0.169 in assay [1]; -0.0918 in assay [2]; -0.122 in assay [3]; -0.468 in assay [4]; -0.0299 in assay [5]; 0.0403 in assay [6]. Further, the “uncleaved DNA left (log2)” value in [7] was 0.045; in assay [8], -0.02; in assay [9], -0.103; in assay [10] it was 0.0229.
Take TCACGCA: the “uncleaved DNA left (log2)” value is 0.0051 in assay [1]; -0.12 in [2]; -0.222 in [3]; -0.872 in assay [4]; -0.123 in [5]; -1.03 in assay [6]. For the same sequence, the “uncleaved DNA left (log2)” value was -0.103 in [7], -0.143 in [8], -0.15 in [9] and -0.2 in assay [10].
